{"source": "PubChem BioAssay AID1347417", "about": "(National Center for Advancing Translational Sciences (NCATS), 2020)", "note": "Screen size: about 120,000 compounds; about 5,300 (4.4%) were called active. This list was built around the results that the source calls inconclusive (neither active nor inactive); the mix of calls is not that of the screen. The call rests on the fitted dose curve; in most records, active means well fitted inhibition curve with a large enough effect; inconclusive means small, poorly fitted or top-dose-only effect; inactive means no such curve, though single readings can be large or run the other way. Potencies beside an inconclusive call are fits to weak or partial responses and may not hold up. Potency means the concentration at half of the fitted maximal effect; tags describe the fitted curve by direction and shape."}
{"assay": "qHTS Primary assay for Inhibitors of Plasmodium falciparum Dd2 growth in vitro; further: nearly all actives have a fitted effect of over 65% in size;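 on activity, negative = inhibition: plate controls were DMSO vehicle for no effect and reference drug for full effect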", "settings": "P. falciparum Dd2 growth, SYBR Green, 72 h; activity, negative = inhibition: at 28.9 µM (top of the series) unless noted; series mostly up to 28.9 µM", "in_short": "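Infected erythrocytes (Dd2, 0.3% parasitemia, 2.5% hematocrit final) are added to compound in RPMI-1640/Albumax II medium, grown 72 h at 37C in low oxygen, then lysed with saponin/Triton-X containing SYBR Green and read by fluorescence.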"}
{"molecule": "C[C@@H](O)[C@H](N)C(=O)NCc1nc(-c2cccc(F)c2)c(-c2ccccn2)[nH]1", "Potency": "inconclusive: 6.31 µM [inhibitor, partial curve, poor fit]"}
{"molecule": "O=S(=O)(c1ccc(Br)cc1)c1nnn2c1nc(NCCc1ccccc1)c1sccc12", "Potency": "inconclusive: 10 µM [inhibitor, single point]"}
{"molecule": "COC(=O)C1=C(C)N=C2SC=C(CC(=O)Nc3ccc(C)c(C)c3)N2C1c1ccccc1", "note": "(stereo not given)", "Potency": "inconclusive: 0.0708 µM [inhibitor, full curve, poor fit]"}
{"molecule": "N#CC1CCN(C(=O)C2(c3ccc(Cl)cc3)CCOCC2)CC1", "activity, negative = inhibition": "inactive: -4.84%"}
{"molecule": "COc1ccc(C(=O)N2CCC(n3cc(-c4nc(C(C)C)no4)nn3)C2)cc1F", "note": "(stereo not given)", "outcome": "inactive"}
{"molecule": "CCN1c2cc(C(=O)Nc3cccc(Br)c3)ccc2C(=O)N2CCCCCC21", "note": "(stereo not given)", "Potency": "inconclusive: 2.82 µM [inhibitor, partial curve, poor fit]"}
{"molecule": "CCC1(CC)CN(C(=O)C2CCC(=O)N(Cc3ccccn3)C2)CCO1", "note": "(stereo not given)", "Potency": "inconclusive: 1 µM [inhibitor, partial curve, poor fit]"}
{"molecule": "Cc1noc2c(NCCN(C)C)cc(-c3cccc(C(F)(F)F)c3)nc12", "Potency": "inconclusive: 31.6 µM [inhibitor, single point]"}
{"molecule": "O=C1N(C2CCN(C3CCC3)CC2)C(c2ccncc2)C12CCCCC2", "note": "(stereo not given)", "Potency": "inconclusive: 5.01 µM [inhibitor, partial curve, poor fit]"}
{"molecule": "Cc1ccc(-c2nn(C)c(=O)c3ccccc23)cc1S(=O)(=O)NCCCN(C)C", "Potency": "inconclusive: 12.6 µM [inhibitor, partial curve]"}
{"molecule": "COCCOC1CCOC2(CCN(C(=O)NCc3ccc(F)cc3)CC2)C1", "note": "(stereo not given)", "Potency": "inconclusive: 4.47 µM [inhibitor, partial curve, poor fit]"}
{"molecule": "O=C(c1ccc2nccn2c1)N1CCN(c2cnccn2)CC1", "activity, negative = inhibition": "inactive: -7.52%"}
{"molecule": "CC(C)c1ccc(NC(=O)O[C@@H]2CO[C@H]3[C@@H]2OC[C@@H]3NC(=O)c2ccccc2)cc1", "activity, negative = inhibition": "inactive: 6.6% [at 44.1 µM]"}
{"molecule": "Cc1ccc2occ(CC(=O)Nc3ccc(Cl)c(C(F)(F)F)c3)c2c1", "Potency": "inconclusive: 11.2 µM [inhibitor, single point]"}
{"molecule": "CC(C)C[C@@H]1N[C@H](C(=O)NCc2ccco2)Cc2c[nH]c3cccc1c23", "Potency": "inconclusive: 31.6 µM [inhibitor, single point]"}
{"molecule": "Cc1cc(-c2nn(-c3ccccc3F)cc2CN(C)C2CCOC2)c(C)s1", "note": "(stereo not given)", "Potency": "inconclusive: 10 µM [inhibitor, single point]"}
{"molecule": "CN(C(=O)c1ccc2c(c1)N(Cc1ccc(F)cc1)C(=O)c1ccccc1S2(=O)=O)C1CCCCC1", "Potency": "inconclusive: 0.0126 µM [inhibitor, full curve, poor fit]"}
{"molecule": "CCC(CC)C(=O)Nc1nnc(S(=O)(=O)N2c3ccccc3CC2C)s1", "note": "(stereo not given)", "Potency": "inconclusive: 20 µM [inhibitor, partial curve, poor fit]"}
{"molecule": "CCOCCCn1c(=N)c(C(=O)NC(C)c2ccccc2)cc2c(=O)n3cccc(C)c3nc21", "note": "(stereo not given)", "Potency": "inconclusive: 1.58 µM [inhibitor, partial curve, poor fit]"}
{"molecule": "O=C(NC1CCN(c2cc(-c3ccccc3)[nH]n2)C1)c1cccs1", "note": "(stereo not given)", "Potency": "inconclusive: 7.94 µM [inhibitor, partial curve, poor fit]"}
{"molecule": "COc1cc2ncc3c(-c4ccccc4)nn(CC(=O)NC4CCCCC4)c3c2cc1OC", "activity, negative = inhibition": "inactive: -24%"}
{"molecule": "COc1ccc(CNC(=O)C[C@@H]2CCNC[C@@H]2Cc2cc(-c3ccc(F)cc3)on2)cc1", "activity, negative = inhibition": "inactive: -1.61%"}
{"molecule": "COC1CCOC2(CCN(C(=O)c3cccs3)CC2)C1", "note": "(stereo not given)", "outcome": "inactive"}
{"molecule": "CCCNC(=O)N1CCC(Oc2ccccc2-c2nc(-c3ccncc3)no2)C1", "note": "(stereo not given)", "activity, negative = inhibition": "inactive: -24.9%"}
{"molecule": "Cc1ccc(C(=O)N2CC3(Cc4ccccc4NC3=O)C2)cc1", "activity, negative = inhibition": "inactive: 9.28%"}
{"molecule": "Cc1ccc(NC(=O)c2c(C)oc3ccc(O)c(CN(C)Cc4ccccc4)c23)c(C)c1", "Potency": "active: 1.26 µM"}
{"molecule": "CN(C)C(=O)N1CCCCC(NC2CCN(c3ccc4c(c3)CCC4)CC2)C1", "note": "(stereo not given)", "Potency": "inconclusive: 11.2 µM [inhibitor, single point]"}
{"molecule": "CC(C)c1nc2c(c(-c3ccc(O)cc3)n1)CN(Cc1ccc(N(C)C)cc1)CC2", "Potency": "inconclusive: 11.2 µM [inhibitor, single point]"}
{"molecule": "Cc1cc(C)c(CNC(=O)c2nc(-c3cccc(C(F)(F)F)c3)cc3[nH]ccc23)c(=O)[nH]1", "Potency": "inconclusive: 3.98 µM [inhibitor, single point]"}
{"molecule": "CCCOc1ccc(C(=O)Nc2ccc(-c3cc4ccccc4oc3=O)c(C)c2)cc1", "Potency": "inconclusive: 0.112 µM [inhibitor, full curve, poor fit]"}
{"molecule": "COc1ccc(C(=O)N2CCC3(CC2)NCCc2c3[nH]c3ccccc23)cn1", "Potency": "inconclusive: 6.31 µM [inhibitor, partial curve]"}
{"molecule": "CCCNc1ncnc2c1c(-c1ccccc1)cn2-c1ccc(OCC)cc1", "Potency": "inconclusive: 17.8 µM [inhibitor, single point]"}
{"molecule": "O=c1cc(CSc2ccccc2)[nH]c2ccc(F)cc12", "Potency": "inconclusive: 11.2 µM [inhibitor, single point]"}
{"molecule": "COc1ccc(NC(=O)CCn2c(-c3ccc(F)cc3)cc(C(C)=O)c2C)c(OC)c1", "Potency": "inconclusive: 17.8 µM [inhibitor, single point]"}
{"molecule": "Cc1ccccc1Cn1c(=O)n(CCc2ccccc2)c(=O)c2sc3ccccc3c21", "Potency": "inconclusive: 14.1 µM [inhibitor, partial curve, poor fit]"}
{"molecule": "Cc1ccc(CN2CC[C@@H]3CN(S(C)(=O)=O)[C@@H]3C2)c(C)c1", "Potency": "inconclusive: 7.94 µM [inhibitor, single point]"}
{"molecule": "CN(C)C[C@@H]1CN(C2CCOCC2)C[C@H]1NC(=O)c1ccccc1C(F)(F)F", "activity, negative = inhibition": "inactive: 6.2%"}
{"molecule": "Cc1ccc(C(=O)N2CCCC3(COc4ccccc4C(=O)N3)C2)cc1", "note": "(stereo not given)", "activity, negative = inhibition": "inactive: -9.4% [at 44.1 µM]"}
{"molecule": "CCOc1ccc(S(=O)(=O)c2c(C(=O)c3ccc(C)c(C)c3)cnc3ccccc23)cc1", "Potency": "active: 7.94 µM"}
{"molecule": "c1ccc(-c2noc(-c3cncnc3N3CCC(N4CCCCC4)CC3)n2)cc1", "Potency": "inconclusive: 1.26 µM [inhibitor, partial curve, poor fit]"}
{"molecule": "CNC(=O)N1CCC(C2CCN(C(=O)c3c(F)cccc3Cl)C2)CC1", "note": "(stereo not given)", "activity, negative = inhibition": "inactive: -4.53%"}
{"molecule": "CCC[C@H]1CN(C(=O)c2ccccc2Cc2ccc(C)cc2)C[C@@H]1N", "Potency": "inconclusive: 2.82 µM [inhibitor, partial curve]"}
{"molecule": "CC(C)CC(NC(=O)C1CCCCC1)C(=O)Nc1cccc(C(F)(F)F)c1", "note": "(stereo not given)", "Potency": "inconclusive: 7.94 µM [inhibitor, partial curve, poor fit]"}
{"molecule": "Cc1cccc(C2c3cc(OCc4nc(C(=O)NC(C)C)co4)ccc3CCN2C(=O)C2CC2)c1", "note": "(stereo not given)", "Potency": "inconclusive: 1.78 µM [inhibitor, partial curve, poor fit]"}
{"molecule": "Cc1ccc(CN2CC(Oc3ccccc3C(=O)NC3CC3)C2)cc1", "Potency": "inconclusive: 10 µM [inhibitor, single point]"}
{"molecule": "Cc1ccc(-c2nc(S(=O)(=O)c3ccccc3)c(SCC(=O)NC3CCCCC3)o2)cc1", "Potency": "inconclusive: 11.2 µM [inhibitor, partial curve, poor fit]"}
{"molecule": "Cc1ccc(-c2nnc([C@H]3CCN(C(=O)Nc4ccc(F)cc4)C3)o2)cc1", "Potency": "inconclusive: 20 µM [inhibitor, single point]"}
{"molecule": "CCOC(=O)c1ccccc1NC(=O)c1cc2c(s1)-c1ccccc1SC2", "Potency": "inconclusive: 10 µM [inhibitor, single point]"}
{"molecule": "COc1ccc(Br)cc1CNC(=O)CCc1cn(Cc2ccc(C)cc2)c2ccccc12", "Potency": "inconclusive: 12.6 µM [inhibitor, single point]"}
{"molecule": "COc1ccc(-c2cc(N3CCCN(C(=O)C4(c5ccc(OC)cc5)CC4)CC3)n[nH]2)cc1", "activity, negative = inhibition": "inactive: -22%"}
{"molecule": "Cc1cn2nc(C(=O)NC(C)c3ccc(F)cc3)cc2c(N2CCCC2)n1", "note": "(stereo not given)", "Potency": "inconclusive: 3.98 µM [inhibitor, single point]"}
{"molecule": "CS(=O)(=O)N1CCC(OC2CCN(C(=O)c3ccccc3Cl)CC2)CC1", "activity, negative = inhibition": "inactive: 5.04%"}
{"molecule": "O=C(O)C1CCc2sc(C(=O)N3CCOCC3)cc2C1", "note": "(stereo not given)", "activity, negative = inhibition": "inactive: 11.9%"}
{"molecule": "COc1ccccc1C1CCCN1Cc1cn(CCC(N)=O)c2ccccc12", "note": "(stereo not given)", "Potency": "inconclusive: 8.91 µM [inhibitor, single point]"}
{"molecule": "Cc1noc(C)c1CN1CCNc2cnc(OCc3cccnc3)cc2C1", "activity, negative = inhibition": "inactive: 34.7% [at 44.1 µM]"}
{"molecule": "COc1ccc(-c2cc(C(F)(F)F)nc(SCCC(=O)Nc3cccc(OC)c3)n2)cc1", "Potency": "inconclusive: 12.6 µM [inhibitor, single point]"}
{"molecule": "Cc1ccc(NC(=O)N2CC(C(=O)N(C)C)C3(CCOCC3)C2)c(Cl)c1", "note": "(stereo not given)", "activity, negative = inhibition": "inactive: 3.41%"}
{"molecule": "COCCNC(=O)[C@H]1C[C@H](Oc2ccccc2)CN1C(=O)CC1CCCC1", "activity, negative = inhibition": "inactive: -17.6%"}
{"molecule": "COC1CN(c2ccc(C)cc2)C12CCN(C(=O)c1sc(C)nc1C)CC2", "note": "(stereo not given)", "activity, negative = inhibition": "inactive: -14.8%"}
{"molecule": "CCc1ccc(NC(=O)c2ccc(NS(=O)(=O)c3c(C)noc3C)cc2)cc1", "activity, negative = inhibition": "inactive: -12.8%"}
{"molecule": "CCc1ccc(S(=O)(=O)N2CC(F)(F)C[C@H]2c2nnc(C)o2)cc1", "activity, negative = inhibition": "inactive: 17.8%"}
{"molecule": "Cc1ccc(Cl)cc1N1CCN(C(=O)c2nn(C)c3c2CS(=O)(=O)c2ccccc2-3)CC1", "Potency": "inconclusive: 8.91 µM [inhibitor, single point]"}
{"molecule": "COc1ccc(CCNC(=O)CCc2cn(Cc3ccc(F)cc3)c3ccccc23)cc1OC", "Potency": "inconclusive: 0.0447 µM [inhibitor, full curve, poor fit]"}
{"molecule": "CCCNC(=O)c1cc2c(s1)CCN(C(C)=O)C2", "activity, negative = inhibition": "inactive: 5.49%"}
{"molecule": "CC(=O)Nc1ccc(CN2CC3(C2)C(=O)N(Cc2cccc(Cl)c2)C(=O)[C@@H]2C[C@@H](O)CN23)cc1", "Potency": "inconclusive: 20 µM [inhibitor, single point]"}
